These are yes or no findings as the source states them, for the method shown. For some of these results: Binding seen in cells or lysates may run through a third protein. Some entries that bind do so weakly or less than the wild type. Tags and fused reporters may be left off the sequences shown.

In test [1] the target is T1, N-terminally 3xFLAG-tagged Arabidopsis thaliana chlorophyll synthase (ChlG) lacking the chloroplast transit peptide (Arabidopsis thaliana) (UniProt Q38833).
T1 sequence: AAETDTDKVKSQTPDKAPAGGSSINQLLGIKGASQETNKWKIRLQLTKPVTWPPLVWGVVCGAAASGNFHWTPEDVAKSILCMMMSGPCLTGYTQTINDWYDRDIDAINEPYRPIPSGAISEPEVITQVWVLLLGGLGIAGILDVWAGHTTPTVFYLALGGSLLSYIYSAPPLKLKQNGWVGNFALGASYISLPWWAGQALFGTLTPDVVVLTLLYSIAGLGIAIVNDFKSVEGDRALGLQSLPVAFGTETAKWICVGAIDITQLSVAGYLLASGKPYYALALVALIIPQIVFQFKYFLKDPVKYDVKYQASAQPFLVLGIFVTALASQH
As to the kind of experiment: SEC; FLAG eluate adjusted to 1% β-DDM, Bio-Sep 3000 gel filtration column on HPLC; fractions read by immunoblot; cells from moderate or normal light. (In general: In gel filtration, larger molecules generally elute earlier.)

Test [2] addresses T1, N-terminally 3xFLAG-tagged Arabidopsis thaliana chlorophyll synthase (ChlG) lacking the chloroplast transit peptide (Arabidopsis thaliana). As to the kind of experiment: co-IP; anti-FLAG-M2 agarose column with membranes solubilised in 2% β-DDM; FLAG-buffer (25 mM sodium phosphate pH 7.4, 10 mM MgCl2, 50 mM NaCl, 10% glycerol), wash with 0.04% β-DDM, elution with 3xFLAG peptide; eluates read by SDS/PAGE and immunoblot; FLAG-6803 also before and after high light stress. (Immunoblotting shows a protein as a band on a membrane.)

The target in test [3] is T2, N-terminally 3xFLAG-tagged Rhodobacter sphaeroides 2.4.1 bacteriochlorophyll synthase (BchG) (Rhodobacter sphaeroides 2.4.1) (UniProt Q9Z5D6).
T2 sequence: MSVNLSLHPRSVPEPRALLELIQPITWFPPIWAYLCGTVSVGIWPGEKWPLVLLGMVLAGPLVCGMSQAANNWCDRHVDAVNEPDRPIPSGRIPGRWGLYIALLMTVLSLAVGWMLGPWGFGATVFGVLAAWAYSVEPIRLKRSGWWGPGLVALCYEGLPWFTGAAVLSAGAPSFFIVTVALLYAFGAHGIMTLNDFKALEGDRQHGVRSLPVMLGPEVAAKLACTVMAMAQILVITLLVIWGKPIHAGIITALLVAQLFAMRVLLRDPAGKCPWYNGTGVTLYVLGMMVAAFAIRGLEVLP
The description is as above.

For test [4], the target named is T3, N-terminally 3xFLAG-tagged Synechocystis sp. PCC 6803 chlorophyll synthase (ChlG) (Synechocystis sp. PCC 6803) (UniProt Q55145).
T3 sequence: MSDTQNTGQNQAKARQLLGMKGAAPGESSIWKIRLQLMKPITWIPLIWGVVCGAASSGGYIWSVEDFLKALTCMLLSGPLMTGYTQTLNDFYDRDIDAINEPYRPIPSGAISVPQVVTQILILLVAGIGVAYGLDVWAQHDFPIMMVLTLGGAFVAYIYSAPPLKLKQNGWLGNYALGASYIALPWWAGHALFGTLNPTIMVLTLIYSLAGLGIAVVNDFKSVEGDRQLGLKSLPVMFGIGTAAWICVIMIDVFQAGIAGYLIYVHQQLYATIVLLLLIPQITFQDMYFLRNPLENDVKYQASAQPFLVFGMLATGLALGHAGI
The test is described as above.

Test [5] has as its target T1, N-terminally 3xFLAG-tagged Arabidopsis thaliana chlorophyll synthase (ChlG) lacking the chloroplast transit peptide (Arabidopsis thaliana). As to the kind of experiment: SDS/PAGE band with immunoblot; FLAG-immunoprecipitation eluates on SDS/PAGE; a prominent band cross-reacts with anti-FLAG and anti-ChlG antibodies.
Test [6] deals with T3, N-terminally 3xFLAG-tagged Synechocystis sp. PCC 6803 chlorophyll synthase (ChlG) (Synechocystis sp. PCC 6803). As to the kind of experiment: SEC; FLAG eluate adjusted to 1% β-DDM, Bio-Sep 3000 gel filtration column on HPLC; fractions read by immunoblot; cells from moderate or normal light.
Test [7] shares this target. As to the kind of experiment: condition: only after high light stress (~800 μmol photons·m^-2·s^-1 for 80 min); SEC; gel filtration of the FLAG-6803 eluate from cells after high light stress (~800 μmol photons·m^-2·s^-1 for 80 min).
The target is the same in test [8]. As to the kind of experiment: condition: only after high light stress (~800 μmol photons·m^-2·s^-1 for 80 min); co-IP; anti-FLAG immunoprecipitation from FLAG-6803 cells after high light stress (~800 μmol photons·m^-2·s^-1 for 80 min); eluates read by SDS/PAGE, immunoblot and mass spectrometry.

B1: membrane insertase YidC (Slr1471) (protein, UniProt P74155 1-384)
chain: MDFGIGFISTNIMLPILDFFFGIVHSYGFAIIALTLVIRLGLYPLSAGQIRNMRKMRITQPLMKERQEEIQKRYKDDPAKQQEEMAKVMKEFGNPLAGCLPLLLQMPILFALFATLRGSPFSDINYTVDLQILPQEQVERIVPQTFSTKPQNIYVDEALHYPIAVFLPGGKMLGVGEKTQLEIQSTEGKAFNQVIPEKNSQILTPTYSVTKGEDRISVNPDGTIEALVPGDATVQVTIPGIAARTGFLFIKALGQVGVTGENGEINWDILGMIVFFGFSIYLNQELSGASGGGAPNAQAQQQQTINKITPILFSGMFLFFPLPAGVLMYIVMANVFQTIQTLILMREPLPENLQKLLDEQQKATQGRESLPFEKKSSKKKEKTS
On to B1, for which the binding result in test [1], in test [2], in test [3] and in test [4] was “binds” in each case.

B2: N-terminally 3xFLAG-tagged Arabidopsis thaliana chlorophyll synthase (ChlG) lacking the chloroplast transit peptide (enzyme, UniProt Q38833 58-387)
chain: AAETDTDKVKSQTPDKAPAGGSSINQLLGIKGASQETNKWKIRLQLTKPVTWPPLVWGVVCGAAASGNFHWTPEDVAKSILCMMMSGPCLTGYTQTINDWYDRDIDAINEPYRPIPSGAISEPEVITQVWVLLLGGLGIAGILDVWAGHTTPTVFYLALGGSLLSYIYSAPPLKLKQNGWVGNFALGASYISLPWWAGQALFGTLTPDVVVLTLLYSIAGLGIAIVNDFKSVEGDRALGLQSLPVAFGTETAKWICVGAIDITQLSVAGYLLASGKPYYALALVALIIPQIVFQFKYFLKDPVKYDVKYQASAQPFLVLGIFVTALASQH
For the molecule B2, in test [5], the binding entry is on record as “binds”.

B3: photosystem II assembly factor Ycf39 (Slr0399) (protein, UniProt P74429 1-326)
chain: MRVLVVGGTGTLGRQIVRQAIDQGHTVVCLVRSLRKAAFLKEWGATIVGGNICKPETLSPALENIDAVIDASTARATDSLTIRQVDWEGKLNLIRAVQKAGIKKFVFFSILRAAEYPKVPLMDIKNCTEKFLAQTNLDYTILQLAGFMQGLIGQYAIPILDNQSVWQTGENTPIAYMNTQDVAKFAVRAVELDSVARKTYPVVGSRAWGATEIIQLCERMSGNNARISQVPMAVLRFMRSFTRFFQWTYNASDRLAFSEVLASGKALTADMAPVYEQFGLDPKETTTLESYLQEYFGRIIKKLKELDYEVNPTQTEGKKKKNNFFF
Consider B3, for which the binding result in test [1] is listed as “no binding”; in test [6] it was “binds”; in test [7], “no binding”; in test [8], “no binding”; in test [2], “no binding”; in test [4], “binds”.

B4: high light-inducible protein D (HliD, Ssr1789) (protein, UniProt P72932 1-57)
chain: MSEELQPNQTPVQEDPKFGFNNYAEKLNGRAAMVGFLLILVIEYFTNQGVLAWLGLR
In the case of B4, the binding result in test [1] and in test [2] was “no binding” each time.

(Values after article PMC6175206.)
